{"source": "PubChem BioAssay AID463173", "about": "(ICCB-Longwood Screening Facility, Harvard Medical School, 2010)", "note": "Out of some 52,000 compounds screened, about 4,300 (8.3%) were called active. No stated cut-off is given here; in the data, active means survival mostly below about 52% (no sharp cut-off); inactive means mostly above about 56%. This is one part of the list."}
{"test_system": "DeltatarO mutant", "assay": "S. aureus survival, RN4220 and DeltatarO strains – OD600, teichoic acid synthesis inhibitors, primary screen (AID 463173)", "conditions": "S. aureus RN4220 wild type/DeltatarO growth, OD600, 18 h, active compounds read low, screened at 18.75 µg/mL (by protocol)"}
{"smiles": "CCCCOc1cccc(C(=O)Nc2ccc3oc(-c4cccnc4)nc3c2)c1", "survival": "active: 46%"}
{"smiles": "Cc1cc(C)cc(-n2c(SCC(N)=O)nc3c(oc4ccccc43)c2=O)c1", "survival": "inactive: 97%"}
{"smiles": "COc1cccc(Nc2c3c(nc4nncn24)CCC3)c1", "survival": "inactive: 71%"}
{"smiles": "CCOc1ccccc1NC(=O)Cn1cnc2sc(C)c(S(=O)(=O)N3CCC(C)CC3)c2c1=O", "survival": "inactive: 65%"}
{"smiles": "O=C(NCc1ccccc1Cl)c1cc2ccccc2o1", "survival": "inactive: 74%"}
{"smiles": "COc1cc(OC)cc(C(=O)Nc2ccc3c(c2)N(C2CCCC2)C(=O)c2ccccc2S3)c1", "survival": "inactive: 119%"}
{"smiles": "O=C(CSc1nc2ccccc2nc1Cc1ccccc1)N1CCCCC1", "survival": "inactive: 83%"}
{"smiles": "CCc1cccc(NC(=O)CCS(=O)(=O)c2cc(Br)cc3c2N(C(C)=O)CC3)c1", "survival": "inactive: 144%"}
{"smiles": "COc1cc(-c2nc3ncccn3c2Nc2ccc(C)cc2C)ccc1O", "survival": "inactive: 132%"}
{"smiles": "CC(c1ccccc1F)n1cc(C(=O)NCCCn2ccnc2)nn1", "note": "(stereo not given)", "survival": "inactive: 96%"}
{"smiles": "Cc1ccc(C)c(NC(=O)CSc2nc(=O)n(Cc3ccccn3)c3c2CCC3)c1", "survival": "inactive: 80%"}
{"smiles": "Cc1cccc(N2CCN(S(=O)(=O)c3ccc(F)c(C(=O)Nc4ccc(C(C)C)cc4)c3)CC2)c1C", "survival": "inactive: 94%"}
{"smiles": "CCOc1ccc(C(=O)C(CC(CN2CCOCC2)C(=O)c2ccc(OCC)cc2)CN2CCOCC2)cc1", "note": "(stereo not given)", "survival": "inactive: 104%"}
{"smiles": "COc1ccc(OC)c(Nc2ncnc3c2cnn3-c2ccc(C)cc2)c1", "survival": "inactive: 55%"}
{"smiles": "COc1ccc(-c2noc(CN3CCN(c4cccc(Cl)c4)CC3)n2)cc1", "survival": "active: 13%"}
{"smiles": "CCN(CC)c1nn2c(=O)c(C(=O)NCc3cccc(C)c3)cnc2s1", "survival": "inactive: 76%"}
{"smiles": "COc1ccc(Cn2c(SCc3ccc(C(=O)NCCc4ccccc4)cc3)nc3cccnc32)cc1", "survival": "inactive: 75%"}
{"smiles": "Cn1c(=O)n(C/C=C/c2ccccc2)c(=O)c2c1nc1n2CCN1c1ccc(Cl)cc1", "survival": "inactive: 77%"}
{"smiles": "CCn1cc(S(=O)(=O)c2ccc(C)cc2)c(=O)c2cc(F)c(N3CCCCCC3)cc21", "survival": "inactive: 90%"}
{"smiles": "CCOC(=O)c1[nH]c(C)c(CCC(=O)NCc2ccccc2C)c1C", "survival": "inactive: 102%"}
{"smiles": "Cn1nc(-c2ccccc2F)c2cc(C(=O)N3CCN(c4ccc(F)cc4)CC3)sc21", "survival": "inactive: 51%"}
{"smiles": "Cc1nn(C(=O)c2cccc(F)c2)c(C)c1S(=O)(=O)N1CCCCCC1", "survival": "inactive: 83%"}
{"smiles": "O=C1CCCN1Cc1ncnn1-c1ccccc1", "survival": "inactive: 113%"}
{"smiles": "CCC(C)NC(=O)Cn1c(=O)n(Cc2ccc(C(=O)NCc3ccccc3OC)cc2)c(=O)c2ccccc21", "note": "(stereo not given)", "survival": "inactive: 84%"}
{"smiles": "CCCN1CCN(CCCNC(=O)Cn2c(-c3cccs3)cc3ccccc32)CC1", "survival": "inactive: 85%"}
{"smiles": "Cc1ccc(NC(=O)CSc2ncnc3c2sc2ccccc23)cc1C", "survival": "inactive: 113%"}
{"smiles": "Cn1cc(-c2cc3n(n2)CCC(=O)N3CC(=O)O)c2ccccc21", "survival": "inactive: 103%"}
{"smiles": "Cc1ccccc1OCC(=O)N(Cc1ccc(N(C)C)cc1)CC1CCCO1", "note": "(stereo not given)", "survival": "inactive: 97%"}
{"smiles": "Cc1cccc(CNC(=O)CCCN2C(=O)CCn3nc(-c4cn(C)c5ccccc45)cc32)c1", "survival": "active: -5%"}
{"smiles": "CCN(CC)c1ccc(NC(=O)c2cc(S(=O)(=O)N3CCc4ccccc43)cn2C)c(C)c1", "survival": "inactive: 66%"}
{"smiles": "CCN1CCN(c2c(S(=O)(=O)c3ccccc3)cnc3ccc(Cl)cc23)CC1", "survival": "inactive: 124%"}
{"smiles": "O=C(C1CCC1)N1CCCc2cc(S(=O)(=O)Nc3ccc(F)cc3)ccc21", "survival": "inactive: 80%"}
{"smiles": "COc1ccccc1N(CC(=O)Nc1ccc(C)c(Cl)c1)S(=O)(=O)c1ccc(C)cc1", "survival": "inactive: 57%"}
{"smiles": "CCOc1ccc(CC(=O)NC2CC(=O)N(c3ccc(C)c(C)c3)C2)cc1", "note": "(stereo not given)", "survival": "inactive: 92%"}
{"smiles": "C#CC(C)(CC)NC(=O)c1cc2c(n(-c3ccc(Cl)cc3)c1=O)CC(C)(C)CC2=O", "note": "(stereo not given)", "survival": "inactive: 67%"}
{"smiles": "COCCn1c(C)cc(O)c(C(c2ccc(C)cc2)N2CCCCC2)c1=O", "note": "(stereo not given)", "survival": "inactive: 86%"}
{"smiles": "CC(=O)N1CCc2cc(Br)cc(S(=O)(=O)N3CCN(c4cc(C)ccc4C)CC3)c21", "survival": "inactive: 78%"}
{"smiles": "COc1ccc(Cl)cc1NC(=O)c1cc2ccc3ccc(C)[nH]c3c2n1", "survival": "inactive: 78%"}
{"smiles": "O=C(c1cc(-c2ccc(Cl)cc2)on1)N(Cc1cccc(F)c1)Cc1ccco1", "survival": "inactive: 79%"}
{"smiles": "Cn1c(=O)c2nc(SCC(=O)Nc3cc(Cl)cc(Cl)c3)n(C)c2n(C)c1=O", "survival": "inactive: 115%"}
{"smiles": "CCc1ccc(NC(=O)CSc2c(C)cnc3c2c(=O)n(C)c(=O)n3C)cc1", "survival": "inactive: 83%"}
{"smiles": "Cc1nc2sccn2c(=O)c1S(=O)(=O)NCc1ccc(F)cc1", "survival": "inactive: 51%"}
{"smiles": "Cc1ccc(Cn2c(CNS(=O)(=O)c3ccc(C(C)(C)C)cc3)nc3cccnc32)cc1", "survival": "inactive: 108%"}
{"smiles": "COc1cc(NC(=O)c2cc(-c3cccs3)on2)c(OC)cc1Cl", "survival": "inactive: 52%"}
{"smiles": "COc1ccc(CNc2nc(-c3ccco3)nn2C(=O)c2ccccc2Cl)cc1", "survival": "inactive: 56%"}
